Measurements taken from PubChem BioAssay AID2202238 (Ras Initiative Chemistry Research Team, Frederick National …, 2025).
In all, about 2,200 compounds went through this assay and fewer than 10 were called active. This is one part of the list. Where no call is shown, the source marks the result inconclusive.

Biological target: GTPase KRas (Homo sapiens) (UniProt P01116)
Assay: Fragment capture on engineered cysteines, share of protein labelled (AID 2202238)
Set-up: protein at 5 µM with 500 µM competing thiol for 1.5 h
Settings: KRAS G12D cysteine mutants, disulfide tethering, MALDI-TOF labeling; stronger effect = higher value; H27C mutant labeling; fragment at 500 µM

Chain of UniProt P01116 (P01116 whole entry, looked up, the tested form may be a part): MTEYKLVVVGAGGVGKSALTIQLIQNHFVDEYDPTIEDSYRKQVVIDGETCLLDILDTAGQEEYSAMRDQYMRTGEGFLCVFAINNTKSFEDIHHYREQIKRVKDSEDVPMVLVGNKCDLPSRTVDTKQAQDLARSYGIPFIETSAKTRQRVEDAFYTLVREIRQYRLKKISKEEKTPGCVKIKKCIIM

Compared with COc1cccc(CCN(CC(F)F)C(=O)CCS)c1, O=C(Cc1cccc(OCC(F)(F)F)c1)NCCS is lower in percent labeling: 39.4% for the first, 24.9% for the second.

Going from CCn1cc(-c2[nH]ncc2C(=O)NCCS)cn1 to Cc1ccc(C(=O)NCCS)cc1-c1cnn(C)c1, the percent labeling falls from 45.4% to 41.5%.

First: CN(CCNC(=O)CCS)c1ccccn1
Second: COc1ccccc1OCCC(=O)NCCS
The percent labeling of the first is lower: 28.2% for the first, 32.7% for the second.

First: O=C(CCS)Nc1cc2c3c(c1)CCC(=O)N3CCC2
Second: NC(=O)N1CCc2cc(NC(=O)CCS)ccc21
The percent labeling of the first is lower: 41.2% for the first, 47.6% for the second.

Compared with Cc1nn(-c2ccccc2)c2sc(C(=O)NCCS)cc12, Cc1nc2ccccc2c(C)c1CC(=O)NCCS is higher in percent labeling: 33.9% for the first, 40.4% for the second.

Going from O=C(NCCS)C1(C(F)(F)F)CCN(Cc2ccccc2)C1 (stereo unspecified) to C[C@H]1OCC(=O)N(Cc2ccccc2)[C@@H]1C(=O)NCCS, the percent labeling rises from 31.6% to 34.5%.

Compared with Cc1cccc(C(CC(=O)NCCS)NC(N)=O)c1 (stereo unspecified), CC(NC(=O)c1ccc(Br)o1)C(=O)NCCS (stereo unspecified) is higher in percent labeling: 32.7% for the first, 34.1% for the second.

Going from O=C(NCCS)c1ccc2noc(-c3ccc(F)cc3)c2c1 to O=C(NCCS)c1ccc2nc(-c3ccc(F)cc3)[nH]c2c1, the percent labeling rises from 23.3% to 25%.

Compared with Cn1cc(C(=O)NCCS)c2ccccc2c1=O, O=C(Cc1cc2ccccc2c(=O)o1)NCCS is lower in percent labeling: 45.1% for the first, 34.2% for the second.

First: O=C(CCS)NCCn1cncc1-c1ccccc1
Second: O=C(Cn1nccc1-c1ccccc1)NCCS
The percent labeling of the first is higher: 35.5% for the first, 28.6% for the second.

Compared with CN(C)CCNS(=O)(=O)c1cccc(NC(=O)CCS)c1, CN1CCN(CCc2cccc(NC(=O)CCS)c2)CC1 is lower in percent labeling: 60% for the first, 56.2% for the second.

Compared with Cc1ccn2c(CN3CCN(C(=O)CCS)CC3)c(C)nc2c1, Cc1noc(CN2CCN(C(=O)CCS)CC2)n1 is lower in percent labeling: 36.1% for the first, 31.6% for the second.

Compared with O=C(CCS)N1CCN(Cc2noc(C3CC3)n2)CC1, Cc1nc(N2CCN(C(=O)CCS)CC2)n[nH]1 is lower in percent labeling: 34.8% for the first, 33.3% for the second.

Compared with O=C(NCCS)C1(C2CCCCO2)CCCO1 (stereo unspecified), O=C(NCCS)C1CN(C(=O)C2CCCCC2)C1 is lower in percent labeling: 28.9% for the first, 28.7% for the second.

Going from Cc1ccc(-n2ccc(CNC(=O)CCS)n2)cc1 to O=C(CCS)NCCn1ccc2c(Br)cccc21, the percent labeling rises from 30.3% to 39.2%.

First: COc1ccccc1C1(C)CC1C(=O)NCCS (stereo unspecified)
Second: CC(O)(CN1C(=O)C(C)(C)c2ccccc21)C(=O)NCCS (stereo unspecified)
The percent labeling of the first is lower: 37.4% for the first, 38.5% for the second.

Compared with O=C(CCS)N1CCc2cc(Br)c(Cl)cc21, CC(=O)N1CCc2cc(C(=O)NCCS)ccc21 is higher in percent labeling: 16.4% for the first, 40.5% for the second.

Compared with O=C(CCS)NCCN1C(=O)Cc2ccccc21, O=C(NCCS)c1occc1CN1C(=O)Cc2ccccc21 is higher in percent labeling: 21.1% for the first, 26.7% for the second.

Going from O=C(NCCS)c1ccc(C2CCCOC2)cc1 (stereo unspecified) to O=C(NCCS)c1ccc2c(Br)cnn2c1, the percent labeling falls from 31.2% to 25.1%.

First: Cc1ccc(Cl)c2sc(NC(=O)CCS)nc12
Second: Cc1ccc(NC(=O)CCS)cc1N1C(=O)CNC1=O
The percent labeling of the first is lower: 38.2% for the first, 48.5% for the second.

First: CCc1[nH]c(-c2ccccc2)cc1C(=O)NCCS
Second: Cc1noc(-c2ccccc2C(=O)NCCS)n1
The percent labeling of the first is lower: 28.8% for the first, 35.7% for the second.

First: O=C(CCS)NCc1cn(CC(=O)Nc2cc(F)cc(F)c2)nn1
Second: COc1cccc(-n2cc(NC(=O)CCS)nn2)c1
The percent labeling of the first is lower: 29% for the first, 29.3% for the second.

Compared with CC(C)COc1ncc(CNC(=O)CCS)cc1Cl, COc1nc(C)ccc1CNC(=O)CCS is higher in percent labeling: 31.5% for the first, 40.2% for the second.

Going from CCC1CCc2sc(C(=O)NCCS)cc2C1 (stereo unspecified) to O=C(NCCS)c1cc2scc(Br)c2s1, the percent labeling rises from 15.2% to 30%.

Going from O=C(CCS)N1CCC(n2cc3ccccc3n2)C1 (stereo unspecified) to O=C(CCS)N1CCC(n2cnc3ccccc32)CC1, the percent labeling rises from 40.1% to 48.5%.

Going from O=C(CCS)N1CC(O)CC1c1cc(F)ccc1F (stereo unspecified) to O=C(CCS)N(c1ccc(F)cc1)C1CCC1, the percent labeling falls from 37.9% to 28%.

First: CC1(NC(=O)CCS)CCOC12CC2(F)F (stereo unspecified)
Second: Cc1noc(CC2(NC(=O)CCS)CC2)n1
The percent labeling of the first is higher: 31.7% for the first, 26.7% for the second.

Compared with O=C(NCCS)C(c1ccc(Br)cc1)N1CCCC1 (stereo unspecified), CC(C(=O)NCCS)N1CCCCCC1 (stereo unspecified) is higher in percent labeling: 38% for the first, 49.1% for the second.

Compared with Cc1ccc(CN(C)c2ccc(C(=O)NCCS)cc2)cc1, O=C(NCCS)c1occc1-c1ccc(F)cc1 is lower in percent labeling: 25.8% for the first, 22.7% for the second.

First: Cc1nc(C)n(CC2CCCN(C(=O)CCS)C2)n1 (stereo unspecified)
Second: O=C(CCS)N1CCn2c(CC3CC3)nnc2C1
The percent labeling of the first is higher: 40.2% for the first, 29.3% for the second.

Compared with O=C(CCS)Nc1ccc(Cl)nc1OCc1ccccc1, O=C(CCS)Nc1ccc(SCc2ccccc2)c(Br)c1 is lower in percent labeling: 25.1% for the first, 4% for the second.

Compared with O=C(NCCS)c1ccc(Cl)c2occc12, O=C(NCCS)c1ncoc1-c1ccc(F)cc1 is higher in percent labeling: 20.1% for the first, 23.8% for the second.

Going from Cc1nn(C)c(N2CCOCC2)c1CNC(=O)CCS to Cn1cnc2cccc(CNC(=O)CCS)c21, the percent labeling rises from 37.6% to 42.6%.

Compared with O=C(CCS)NC1(c2nc(-c3ccsc3)no2)CCCCC1, O=C(CCS)NC1(c2ncccc2F)CCC1 is higher in percent labeling: 26.4% for the first, 34.7% for the second.

Going from Cc1cc(Oc2ccccc2C#N)ncc1NC(=O)CCS to Cc1cccc(Oc2ccc(NC(=O)CCS)c(C)n2)c1C, the percent labeling falls from 48.6% to 36.1%.

Going from Cc1cc(C)nc(-n2cc(C(=O)NCCS)c(C)n2)n1 to Cc1nn(C(C)(C)C)c2nc(C(C)C)cc(C(=O)NCCS)c12, the percent labeling falls from 37.8% to 13.9%.

Going from COC(=O)C1(C2(O)CCN(C(=O)CCS)CC2)CCC1 to CC1(N2CCCC2)CCN(C(=O)CCS)CC1, the percent labeling rises from 39.6% to 43.3%.

First: Cc1cc(NC(=O)CCS)cnc1N1CCCCC1C (stereo unspecified)
Second: O=C(CCS)Nc1ccccc1-c1ncc2n1CCCC2
The percent labeling of the first is lower: 32.2% for the first, 42.5% for the second.

Going from Cn1ncc2nc(C(F)(F)F)c(C(=O)NCCS)cc21 to Cc1cc(C(=O)NCCS)nc(C(F)(F)F)n1, the percent labeling falls from 44.9% to 35.7%.

Going from O=C(NCCS)c1cc2c(Br)c(F)ccc2[nH]1 to O=C(NCCS)c1cc2ccc(Br)cc2c(=O)[nH]1, the percent labeling rises from 25% to 28.3%.

Compared with Cn1cc(NC(=O)CCS)c(-c2ccccn2)n1, Cc1nccc(-c2cccc(NC(=O)CCS)c2)n1 is higher in percent labeling: 36.1% for the first, 40.6% for the second.

First: O=C(NCCS)c1csc(-c2cc3ccccc3o2)n1
Second: O=C(NCCS)c1csc(COc2ccc(F)cc2)n1
The percent labeling of the first is lower: 26.1% for the first, 27.5% for the second.

Going from Cn1nnc(CN2CCC[C@@H]2C(=O)NCCS)n1 to Cc1nc(C(=O)N2CCC(C(=O)NCCS)CC2)c(C)o1, the percent labeling rises from 32.2% to 42.3%.

Going from O=C(NCCS)c1cnn(-c2ccc(Cl)cc2Cl)c1 to Cc1cnn(-c2cccc(C(=O)NCCS)c2)c1, the percent labeling falls from 30% to 28.2%.

First: Cc1ccc(S(=O)(=O)N2CCC(C(=O)NCCS)CC2)cc1Cl
Second: O=C(NCCS)C1CCN(c2ccc3cccc(O)c3n2)CC1
The percent labeling of the first is higher: 25.1% for the first, 22.5% for the second.

Going from O=C(CCC(=O)N1CCOc2ccccc21)NCCS to O=C(CCn1c(=O)[nH]c(=O)c2ccccc21)NCCS, the percent labeling falls from 38.6% to 35.5%.

Compared with O=C(CCS)Nc1cccc(-c2ccccc2C(F)(F)F)c1F, CCN(CC(=O)Nc1ccccc1C(F)(F)F)C(=O)CCS is higher in percent labeling: 39.6% for the first, 41.2% for the second.

Compared with CC(C)(C)OC(=O)N1CCC2(CC1)CCN2C(=O)CCS, Cc1ccn(C2CCN(C(=O)CCS)CC2)n1 is higher in percent labeling: 28.2% for the first, 34.3% for the second.

Compared with Cn1ccc(NC(=O)CNC(=O)CCS)n1, Cc1cccc(NC(=O)CCNC(=O)CCS)n1 is lower in percent labeling: 27.4% for the first, 14.9% for the second.

First: O=C(CCS)Nc1ccc(Oc2ccccc2)c(F)c1
Second: O=C(CCS)NCc1cccnc1Oc1cccc(F)c1
The percent labeling of the first is lower: 25.7% for the first, 44.1% for the second.

Going from CC(C)n1nccc1C1NC(=O)CCC1NC(=O)CCS (stereo unspecified) to O=C(CCS)NCc1ccnn1C1CCCCC1, the percent labeling rises from 34.2% to 34.8%.

First: O=C(CCS)N1CCC(n2ccc(=O)[nH]c2=O)CC1
Second: COC(=O)c1cc(C2CN(C(=O)CCS)C2)[nH]n1
The percent labeling of the first is higher: 38.2% for the first, 34.5% for the second.

First: O=C(NCCS)c1ccc2[nH]c(=O)n(CC(F)(F)F)c2c1
Second: CC(C)(C)Cn1c(=O)[nH]c2c(C(=O)NCCS)cccc21
The percent labeling of the first is higher: 53.3% for the first, 34.1% for the second.

Going from Cc1sc2ncn(CCC(=O)NCCS)c(=O)c2c1C to Cc1nc(N)c2c(C)c(C(=O)NCCS)sc2n1, the percent labeling falls from 34% to 32.7%.

Going from CC1CC1c1ccc(CNC(=O)CCS)o1 (stereo unspecified) to COc1cc[nH]c(=O)c1CNC(=O)CCS, the percent labeling rises from 29.9% to 30.5%.

Going from Cn1cc(CN(Cc2cnn(C)c2)C(=O)CCS)cn1 to CCn1c2ccccc2c2cc(CN(C)C(=O)CCS)ccc21, the percent labeling falls from 41.7% to 22.9%.

Going from CC(C)(O)c1n[nH]c(CNC(=O)CCS)n1 to Cc1c(NC(=O)CCS)cnn1CC(C)(C)O, the percent labeling falls from 31.9% to 31.2%.

Compared with N#Cc1cc2c([nH]c1=O)CCC(NC(=O)CCS)C2 (stereo unspecified), O=C(CCS)NC1CC12CCc1cc(Br)ccc12 (stereo unspecified) is lower in percent labeling: 43.4% for the first, 29.9% for the second.

Going from Cn1ccnc1[C@H]1[C@H](C(=O)NCCS)CCC(=O)N1C1CC1 to O=C(NCCS)[C@@H]1CCCC[C@@H]1C(F)(F)F, the percent labeling rises from 26.8% to 27.2%.

Going from COc1ccc(Br)cc1C1(NC(=O)CCS)CC1 to O=C(NCCS)C1CC12CCc1cc(Br)ccc12 (stereo unspecified), the percent labeling falls from 36.5% to 30.1%.

Compared with O=C(CCCc1c[nH]c2ccccc12)NCCS, O=C(NCCS)C1(c2nccc3ccccc23)CC1 is higher in percent labeling: 29.2% for the first, 39.1% for the second.

Compared with O=C(NCCS)C1CC(=O)N(CCc2ccc(F)cc2)C1 (stereo unspecified), O=C(CCS)NCc1ccc(CN2C(=O)CNC2=O)cc1 is higher in percent labeling: 37.6% for the first, 46.4% for the second.

Going from O=C(NCCS)C1CCCc2sc(Nc3ccccc3)nc21 (stereo unspecified) to O=C(NCCS)c1cccc(Nc2ncnc3ccccc23)c1, the percent labeling rises from 19.4% to 31.9%.

Going from CC(C)(Oc1c(F)cccc1F)C(=O)NCCS to O=C(NCCS)c1c(F)cccc1-n1cccn1, the percent labeling falls from 33.9% to 27.4%.

Going from O=C(NCCS)c1ncccc1Br to CCc1[nH]cnc1C(=O)NCCS, the percent labeling rises from 33% to 33.1%.

Compared with CC1(C(=O)NCCS)CCN(c2ccc(Cl)cc2C#N)CC1, Cn1nc(C(=O)NCCS)cc1-c1ccc(Cl)cc1 is higher in percent labeling: 21.5% for the first, 23.3% for the second.

Going from O=C(NCCS)C1CCN(C(=O)C2CCCCC2)CC1 to O=C(NCCS)c1nn2c(c1Br)CCC2, the percent labeling rises from 32.1% to 38.3%.

Going from COC(=O)c1sc2c(c1Br)CN(C(=O)CCS)C2 to CCn1cccc(CNC(=O)CCS)c1=O, the percent labeling falls from 38.8% to 32.7%.

First: Cc1cn(CC(=O)NCCS)nc1C(F)(F)F
Second: Cc1nc2cc(F)c(F)cc2n1CC(=O)NCCS
The percent labeling of the first is lower: 28.8% for the first, 49.8% for the second.

Going from O=C(CCS)NCC1CN(C2CC2)C(=O)O1 (stereo unspecified) to Cn1ncc2nc(C(F)F)c(NC(=O)CCS)cc21, the percent labeling rises from 26.9% to 45.7%.

For CCOc1cc(C#N)cc(Br)c1OCC(=O)NCCS, the percent labeling was 24.2%.
